Results as given in the supplement of paper PMC12632987.
Whole data set: some 4,500 sequences, median “median log2 fold change of GCK-ALFA target abundance (FLAG IP / Myc IP barcode read proportion)” near 0.078, cut for the lowest 2% near -0.6. This is one part of the list.

B1: GBRAP_125_3025 (protein)
chain: SAEQLVADLERIAAALGFSADDVALLGEEARRHGLKGAFIALALAEGLEEAAELLEKLSEEEVAEVVREVAAWLAANPDATPEEVKAKLLEVLKKAVAKS
B2: GBRAP_160_4561 (protein)
chain: RERARELAARLRAAVEATLAETADDSVAEIATALDVTVGEEAMEAAEDPRYSDEMVDAILAAGDEIRAALAALADASVDEIRAAVLAIVDATEARILAIA
B3: GBRAP_83_6991 (protein)
chain: AEKITVVANGDDIEEAAEIVIDLTKEEGYDVDVEIIASKEDWEKVKKMVEKLAKAGIETEVLVLVKGVTEEEAKELQKELEEIAKKHGVNIKVEVVAIEP
B4: GBRAP_166_4972 (protein)
chain: SQEELVEKLKKYLDELAEKMKTADYEEKLELLAEAAEEIEKAKKEGLSDEDLKELIKYLIELAKEVGIPLSDVYGALTILANLDEEEIDILDEAIEEVEK
B5: GBRAP_52_5931 (protein)
chain: SSEEAKKIAQEILDAALAGDEEKLKALIEKLMKEKSDEEIIEVIEELARLTAERGPEYYDVFEHIADIILDVAEKEGKDVELIDYAIARGFGILYQAEQA
B6: GBRAP_52_6014 (protein)
chain: MRERLRAFVDEVLALVRAGKEEEARALIEELVASLNEEEIELLIDVLAERAAAARPEDQEAVWRLAEMLAEALEEAGVDEALADDLLARVAAALYAAEQA
B7: GBRAP_52_6012 (protein)
chain: MEEELEKQVEEALALVKAGRLEEARKLVRKLVKSLNEEEIELLIELLARRAREAAPEDHDAVWTLAEIVAEEMEREGKDEVLADLLLARVAAALHEAELA
B8: GBRAP_160_4661 (protein)
chain: SEELEELKEEIEELGEEALKFMEGESHEQRVAVVRTMVGNIVLLADENPLVSDEAEEKIDEIGEELVKTVEANPDLSDEELRKLIEEMVEKIKEIIDELA
B9: GBRAP_52_6001 (protein)
chain: REERLRKLAEEIVAAAKAGDEDKLRELVIEAARTLSEEELRETGRLTIELLKTLGAAGVDALAALADALNDAAVEEELKPDVLGELQKEALTAAVALEAE
B10: GBRAP_35_5592 (protein)
chain: EIKEIILETAKDFAEAAIDAVKNESIEEAIAMLKAFIRYAKLAIEDLKDDLEALKEIEKLIERVIKEVEKYRSDNPEIQKLLEELKKLAKEAKEQAKKVE
B11: GBRAP_125_3081 (protein)
chain: AVAEAVAYAGRILAAFGFSAAEVAEFKAASANSTVKAVFQALALAVLDEETALKSDKLTDEQALEVLKRVAEAIAANPDLTPEEVKALLKKEIDEALAKQ
B12: GBRAP_14_3853 (protein)
chain: MEELIKAVEETAEETKKLAKEVLPEHAEEIVKKIEELAEKIKKKIKEENLNKEEVAKLMDEMAEEIAKFIKEKGFANETEIAAIRAEILNESALKLEEIE
B13: GBRAP_11_2747 (protein)
chain: KKEKLKEIAKAAEKLAKLLEELIKEGVDNEELLKEAEKALKELKKLVEEYGDESLKKLVEIIEEEFKKAKEDPENALKYLQNALAAARVLAGQVLLDIEE
B14: GBRAP_14_3864 (protein)
chain: MEELIKAVEKTAEETKAFAKELVPEHAEDVIAKIDELAEEIIEKIKKENLNKEEVAELAEEAAEELKKYMLEKGYVSEEEAAAFEAFLLSEFLLNLEEIE
B15: GBRAP_39_5674 (protein)
chain: EKEEEDEDVVSYLEGVAAKYLYETGLSLEEAYERAKKILKEYAKKHPELKELLEELIKIADEKGEEAKLVLIGVAKLIEEGTPDEEIKEKIEKIINYFKS
B16: GBRAP_160_4176 (protein)
chain: SEKLEEAEKEIREEFAEALEMVKGQSAAERAAIVAVTFGEIKLYLEEKGLLTDELEEEIDEIEDEAVATILANPDLTDEELAALLRESAERIIEALRKNS
B17: GBRAP_52_6303 (protein)
chain: MRERARALARAIVDAYLAGKEAEAEALLREFAETADDEEVRIFTEEFVRLIREARPEDLDAMARAVFAAADALEAAGKPEELVSDFLNETTRALYELELR
B18: GBRAP_160_4516 (protein)
chain: SPKLERIEKLVEEARERIIEVIDEGDVEAAITVAAVEFGEVIMEIAEDESMSDEAEDAAAEIRDKLVEELKKAKDASKEEKKKIVEEKSKELIEKLKKLS
B19: GBRAP_128_3479 (protein)
chain: SVEEVVKETRELMEKIKNSSLEEVKKLAEELVALLGSADEEAREAATEVIIEMLPELSVEKLEILADVLREKRPELDPFAATQAAEIEIEALMEAEEKEE
B20: GBRAP_184_5031 (protein)
chain: SVIERTIKADNLEELEAKLEKLKEEVKGSKADLIVTLDIKNPTEEMIKTALKRLGEMKKNGDVSSVTVGFARLLSEELIDVALKTADEEGVKVVLPISEE
B21: GBRAP_160_4720 (protein)
chain: KEKIKKFAEEALKELLKAVEDSEGLSKEEAEALFKGAAGEILMDAFEDPFFTDEMEDVVDEILDELVEELVENYDASLEEKKEIVKEKIKELEEKLLKLA
B22: GBRAP_14_3885 (protein)
chain: SEELEKLLAEALKEFAEAIAKLKAAGEEERAAAIEAELAARTAAAEAAGDLAALAKAAGEAAARAEAEVLLLVEGVSEAEAEAYRRTEIANFEYEVDELE
B23: GBRAP_160_4126 (protein)
chain: KEEDIKTLKDSAEDLEATLKEIDTLTPAQAAVLAEVTLYEAALDMDEQNGKFEDLEKAAVAAADTIRATAATDPAAAKATAKAQLTAAAKAFKDAAKKLE
B24: GBRAP_160_4220 (protein)
chain: DETIEKIVKIFREEFLEAVELIKGESEEERKVILDVAVGRVILEVDSLEEVTDEMEEVVDEKAEETAEELLKLKNASEEERKKLVEEKAKELEEELKKLA
B25: GBRAP_184_5224 (protein)
chain: KLLNRAVEAKTAEELIEKSEKVVKEAEKEGVELNLVVIAEDLSVEEVEKVAKHLKKLKDEGKIKDAILVVENPKSEEEIDRLVAIADKNGIKLVLALSEE
B26: GBRAP_166_4904 (protein)
chain: SLEEKIKELKKKIEELIEKYKEADEEERLELLIEIGELLRELKELGVPREELLALARRALEAAKEAGDSVRVAAGIIAEVADFDEEERDELDAIADEVAA
B27: GBRAP_52_6095 (protein)
chain: SMEKIEKYADEILKAALAGDVEKVTALLLEMVKELSDEEVLETLKLFAEKASELPDEELEKVTEVVIEALDKVAEETGKDELMDEAEAYLAAKAYEKLQK
B28: GBRAP_52_5929 (protein)
chain: MREEARELAERVLEAAEAGDEERLRELLREIVEELDDEEIELVIDELAELTIERGPEYYDLFADIMDLLEDEVEKAGRDVERVQYAIARAAGRMYDALQA
B29: GBRAP_53_6403 (protein)
chain: AAARIAALKAEARALTDAAAAADDATRAALVAEIGAILAELKAAGMPDEEIEALAREIAERLRAAGAPDSHLVALAQTLAELGLDEATAAVGELLVEDLE

target: GABARAP, O95166; test: median log2 fold change of GCK-ALFA target abundance (FLAG IP / Myc IP barcode read proportion) (log2 ratio); each designed protein is fused to an ALFA-tag nanobody in HEK293 cells to bring the named protein to FLAG-tagged glucokinase (GCK); Myc marks an untargeted standard; higher = target protein stabilised (more abundant); conditions: target protein: 3xFLAG-MCP-GCK-ALFA reporter; HEK293 landing pad (RPLP)
How it was run: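 HEK293 landing-pad cells received a recombined binder library fused to the ALFA nanobody and were induced with 2 μg mL^−1 doxycycline, then transfected with a plasmid encoding a FLAG-tagged target and a Myc-tagged standard. Lysates were collected after 48 h for anti-FLAG and anti-Myc immunoprecipitation, and the circular RNA barcodes were reverse transcribed, amplified and sequenced. Target abundance for each binder is the median log2 ratio of FLAG to Myc barcode read proportions. Barcodes had to reach a proportion of at least 10^−7 in both replicates, each binder needed at least 3 barcodes per replicate, a pseudocount of 10^−6 was applied, and the two replicates were pooled.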

GABARAP, O95166, sequence (O95166 whole entry, the tested form may be a part): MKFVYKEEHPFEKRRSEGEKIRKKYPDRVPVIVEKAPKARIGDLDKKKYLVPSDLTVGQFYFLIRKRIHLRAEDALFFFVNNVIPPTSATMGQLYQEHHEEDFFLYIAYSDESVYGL

| Binder | median log2 fold change |
| --- | --- |
| B1 | 0.156 |
| B2 | 0.146 |
| B3 | 0.073 |
| B4 | 0.209 |
| B5 | -0.0495 |
| B6 | -0.157 |
| B7 | 0.0497 |
| B8 | 0.148 |
| B9 | 0.16 |
| B10 | 0.188 |
| B11 | 0.25 |
| B12 | 0.393 |
| B13 | -0.119 |
| B14 | -0.114 |
| B15 | 0.813 |
| B16 | -0.137 |
| B17 | 0.0469 |
| B18 | 0.404 |
| B19 | 0.0244 |
| B20 | 0.0419 |
| B21 | -0.317 |
| B22 | 0.266 |
| B23 | 0.22 |
| B24 | -0.299 |
| B25 | 0.154 |
| B26 | 0.692 |
| B27 | 0.276 |
| B28 | -0.453 |
| B29 | 0.221 |
